Key:
[1] = molecular target: T1, properdin bound C3b (human, UniProt P01024 23-667; P01024 in part, limits assumed); test: ELISA, factor B on plate-bound C3b with or without properdin (FIG. 17)
T1 construct: domain: C3b; Complex made on the plate: 5 nM properdin incubated 1 hour on C3b coated wells, then washed; also called PC3b; properdin C3b complex

[2] = molecular target: T2, human iC3b (human, UniProt P01024 23-667; P01024 749-1303; P01024 1321-1663, limits assumed); test: ELISA, factor B on plate-bound C3 fragments
T2 construct: domain: iC3b

[3] = molecular target: T3, human C3c (human, UniProt P01024 23-667; P01024 749-954; P01024 1321-1663, limits assumed); test: ELISA, factor B on plate-bound C3 fragments
T3 construct: domain: C3c

fold difference in affinity (properdin bound C3b against C3b alone) [1]: 20 to 30 fold
binding result [2]: no binding
binding result [3]: no binding
B1: factor B (enzyme, UniProt P00751 26-764, looked up)
chain: TPWSLARPQGSCSLEGVEIKGGSFRLLQEGQALEYVCPSGFYPYPVQTRTCRSTGSWSTLKTQDQKTVRKAECRAIHCPRPHDFENGEYWPRSPYYNVSDEISFHCYDGYTLRGSANRTCQVNGRWSGQTAICDNGAGYCSNPGIPIGTRKVGSQYRLEDSVTYHCSRGLTLRGSQRRTCQEGGSWSGTEPSCQDSFMYDTPQEVAEAFLSSLTETIEGVDAEDGHGPGEQQKRKIVLDPSGSMNIYLVLDGSDSIGASNFTGAKKCLVNLIEKVASYGVKPRYGLVTYATYPKIWVKVSEADSSNADWVTKQLNEINYEDHKLKSGTNTKKALQAVYSMMSWPDDVPPEGWNRTRHVIILMTDGLHNMGGDPITVIDEIRDLLYIGKDRKNPREDYLDVYVFGVGPLVNQVNINALASKKDNEQHVFKVKDMENLEDVFYQMIDESQSLSLCGMVWEHRKGTDYHKQPWQAKISVIRPSKGHESCMGAVVSEYFVLTAAHCFTVDDKEHSIKVSVGGEKRDLEIEVVLFHPNYNINGKKEAGIPEFYDYDVALIKLKNKLKYGQTIRPICLPCTEGTTRALRLPPTTTCQQQKEELLPAQDIKALFVSEEEKKLTRKEVYIKNGDKKGSCERDAQYAPGYDKVKDISEVVTPRFLCTGGVSPYADPNTCRGDSGGPLIVHKRSRFIQVGVISWGVVDVCKNQKRQKQVPAHARDFHINLFQVLPWLKEKLQDEDLGFL
